Hit rate of the full screen: of about 360,000 compounds, about 740 (0.21%) were called active. Inconclusive results, whose numbers are uncertain, are shown with a selection of clear calls. Calls follow the shape of the dose curve; as a rule, active = well fitted inhibition curve with a large enough effect; inconclusive = small, poorly fitted or top-dose-only effect; inactive = no such curve, though single readings can be large or run the other way. Potencies of inconclusive entries are left out as doubtful fits.
Test system: Plasmodium falciparum AMA1 (3D7) - RON2 peptide interaction
Assay: qHTS for Inhibitors of AMA1-RON; Towards Development of Antimalarial Drug Lead: Primary Screen; also: nearly all actives have a fitted effect of over 45% in size;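 as to activity change, negative = inhibition: 0% = vehicle wells and -100% = peptide control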
Settings: AlphaScreen AMA1-biotinylated RON2 peptide binding; activity change, negative = inhibition: at 58.2 µM (top of the series) unless noted
Method in brief: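 AMA1 (3D7) with his tag at 25 nM final met compounds first, then biotinylated RON2 peptide at 25 nM; detection used donor plus acceptor beads, 10 µg/mL apiece, read by AlphaScreen after 30 min at room temperature.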
Potency is read from the fitted curve at half-maximal effect; tags tell the direction and shape of the fitted curve.

Row | SMILES | Potency | activity change, negative = inhibition
1 | Cc1noc(C)c1C(=O)Nc1nccs1 | inactive | 
2 | C=CCn1c(O)c(C2=c3ccccc3=NC2=O)c2ccccc21 | inconclusive [inhibitor, single point] | 
3 | C=CCn1c(CCC(=O)O)ccc1-c1ccc(OC)cc1 | inactive | 
4 | O=C(CN1CCN(S(=O)(=O)c2ccc(Br)cc2)CC1)N/N=C/c1ccccc1C(=O)O | inactive | 
5 | O=C(c1ccc2c3c(cccc13)CC2)C1CCCN(Cc2cccnc2)C1 (stereo not given) | inconclusive [inhibitor, single point] | 
6 | CCC(C)[C@H](NC(=O)NC1CCCc2ccccc21)C(=O)O (stereo not given in full) | inactive | 
7 | O=C(NC(=S)Nc1ccc(N2CCOCC2)cc1)c1ccccc1 | inconclusive [inhibitor, full curve, poor fit] | 
8 | COc1ccc(-c2nc3ccc(C)cn3c2Cc2cccc(Cl)c2)cc1OC | inconclusive [inhibitor, single point] | 
9 | CCn1cnc2cc(NCc3ccc(N(C)C)cc3)ccc21 | inconclusive [inhibitor, partial curve] | 
10 | Cc1ccccc1NC(=O)c1ccc(F)c(S(=O)(=O)N2CCN(c3ccccn3)CC2)c1 | inactive | 
11 | O=C1c2cccc(Sc3ccccc3)c2C(=O)c2c(Sc3ccccc3)cccc21 | inconclusive [inhibitor, partial curve] | 
12 | COc1ccc(N2CCN(C(=O)c3cccnc3SCc3cccc(Br)c3)CC2)cc1 | active: 31.6 µM | 
13 | COc1ccc(/C=C2/SC(=S)N(CCCC(=O)N3CCN(C)CC3)C2=O)cc1 | inconclusive [inhibitor, partial curve] | 
14 | O=C(/C=C/c1ccc(O)c([N+](=O)[O-])c1)c1ccc2ccccc2c1 | inconclusive [inhibitor, partial curve] | 
15 | COCCOc1cc(NC(=O)c2sccc2Oc2ccc([N+](=O)[O-])cc2F)c(Cl)cc1Cl | inconclusive [inhibitor, single point] | 
16 | CCN(CC)S(=O)(=O)c1ccc(N2CCN(C)CC2)c(NC(=O)COc2ccc(F)cc2Cl)c1 | inconclusive [inhibitor, partial curve, poor fit] | 
17 | CCC(C)N1CCN(S(=O)(=O)c2ccc3ccccc3c2)CC1 (stereo not given) | inconclusive [inhibitor, single point] | 
18 | COc1cccc(C2c3[nH]c4ccccc4c3CCN2C(=O)c2ccccc2F)c1OC (stereo not given) | inconclusive [inhibitor, single point] | 
19 | COc1ccccc1NC(=O)Cc1nc(CCl)cs1 | inconclusive [inhibitor, single point] | 
20 | CCOC(=O)C1=NN(C(=O)Nc2cccc(C(F)(F)F)c2)C2C(=O)N(c3cccc(C(F)(F)F)c3)C(=O)C12 (stereo not given) | inconclusive [inhibitor, partial curve, poor fit] | 
21 | CC1CCN(CCCNC(=O)COc2cc(=O)n(C)c3ccccc23)CC1 | inconclusive [inhibitor, single point] | 
22 | O=Nc1c(O)[nH]c2ccc(Cl)cc12 | inactive | 
23 | Cc1ccc(CNC(=O)[C@H]2C[C@@H]2[C@H](NP(=O)(c2ccccc2)c2ccccc2)c2ccccc2)o1 | inactive | 

Row | SMILES | Potency | activity change, negative = inhibition
24 | COc1ccc(C(=O)c2ccc(N3CCOCC3)c([N+](=O)[O-])c2)cc1 | inconclusive [inhibitor, partial curve] | 
25 | CC(=O)Nc1ccc(-c2ccnc3c2CC(C)(C(=O)NCc2ccc(N(C)C)cc2)O3)cc1 (stereo not given) | inconclusive [inhibitor, single point] | 
26 | Cc1ccccc1N(CC(=O)N1CCN(Cc2ccccc2)CC1)S(C)(=O)=O | inconclusive [inhibitor, single point] | 
27 | CN(C)Cc1ccccc1Sc1cccc2ccccc12 | inconclusive [inhibitor, single point] | 
28 | COc1cc(OC)c(OC)cc1CN1CCN(C(=O)Cc2ccccc2)CC1 | inconclusive [inhibitor, partial curve] | 
29 | CN(/N=C/c1ccc2c(c1)OCO2)c1ccccc1 |  | inactive: 9.89% [at 2.32 µM]
30 | Cn1cccc1C(=O)OCc1ccc(F)cc1 | inconclusive [inhibitor, single point] | 
31 | c1ccc(Cc2c(-c3ccco3)nc3c4ccccc4ccn23)cc1 | inconclusive [inhibitor, partial curve] | 
32 | CCCCCc1cc(=O)oc2c(C(CCN(CC)CC)c3ccc(N(C)C)cc3)c(OC)cc(OC)c12 (stereo not given) | active: 25.1 µM | 
33 | Nc1nc(=S)c2ncn(C3OC(CO)CC3O)c2[nH]1 (stereo not given) | inactive | 
34 | CC(=NCCc1c(C)[nH]c2ccc(C)cc12)C1=C(O)CC(c2ccccc2)CC1=O (stereo not given) | inconclusive [inhibitor, partial curve] | 
35 | CCOc1ccccc1-c1cc(C(=O)N/N=C/c2ccc3c(c2)OCO3)c2ccccc2n1 | inactive | 
36 | CCOC(=O)/C(=N\NC(=O)c1ccccc1)c1ccccc1 | inactive | 
37 | CC(C)(C)NC(=O)C1Cc2ccccc2CN1C(=O)Nc1cccc(Cl)c1 (stereo not given) | inconclusive [inhibitor, single point] | 
38 | Cc1cc(C)c(C)c(S(=O)(=O)N2CCC(C(=O)N3CCN(c4ccc(F)cc4)CC3)CC2)c1C | inconclusive [inhibitor, partial curve] | 
39 | COc1ccc2cc(C(=O)C3CCCN(Cc4cnc(C)s4)C3)ccc2c1 (stereo not given) | inconclusive [inhibitor, partial curve] | 
40 | COc1ccc(C(=O)NC(C)c2nc3ccccc3n2C)cc1OC (stereo not given) | inactive | 
41 | CCOC(=O)C1CCCN(C(=O)c2cncc(Br)c2)CC1 (stereo not given) | inactive | 
42 | Cc1ccc2[nH]c(=O)c(C(c3nnnn3C3CCCC3)N(Cc3cccnc3)Cc3ccco3)cc2c1 (stereo not given) | inactive | 
43 | Cc1ccccc1SCC(=O)NCCCn1ccnc1 | inactive | 
44 | Cc1cc(C(=O)CSc2nc3ccc(Cl)cc3[nH]2)c(C)n1C | inactive | 
45 | C=CCNC(=O)/C(C#N)=C/c1c(N2CCN(c3ccc(OC)cc3)CC2)nc2c(C)cccn2c1=O | inconclusive [inhibitor, partial curve] | 

Source: PubChem BioAssay AID720542 (National Center for Advancing Translational Sciences (NCATS), 2013)
